Source: the supplement of paper PMC6531468
The other results are listed elsewhere or left out. Read counts after selection give these values, which scatter widely. Scores sum up all selected molecules that hold the word; the word was not tested alone.

Columns and labels:
Assay in all cases: 6-mer SELEX enrichment z-score vs GST control; IMP3 is the RNA-binding protein IGF2BP3; higher = more enriched by binding
IMP3 KH1-4 = conditions: construct: KH1-4 (164-579); SELEX round: R4
Method: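 SELEX-seq with GST-tagged IMP3 KH1-4 (Pro164-Lys579) and an N40 RNA pool, round 4. 6-mer z-score of sequence-tag enrichment normalised to the corresponding GST SELEX round; RNA k-mers written as DNA (T for U).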

IMP3 RRM1-2 = conditions: construct: RRM1-2 (1-163); SELEX round: R2
IMP3 RRM1-2, sequence (chain, as listed by the source): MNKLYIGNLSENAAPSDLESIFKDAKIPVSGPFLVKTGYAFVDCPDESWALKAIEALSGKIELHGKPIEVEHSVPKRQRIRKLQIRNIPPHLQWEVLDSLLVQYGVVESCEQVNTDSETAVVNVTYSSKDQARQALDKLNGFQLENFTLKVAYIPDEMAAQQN
Method: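 SELEX-seq with GST-tagged IMP3 RRM1-2 (Met1-Asn163) and an N40 RNA pool, round 2. 6-mer enrichment z-score normalised to GST SELEX. RNA written as DNA (T = U).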

IMP3 full-length = IMP3 full-length (UniProt O00425); conditions: construct: FL IMP3 (1-579); SELEX round: R4
UniProt O00425, sequence (O00425 whole entry): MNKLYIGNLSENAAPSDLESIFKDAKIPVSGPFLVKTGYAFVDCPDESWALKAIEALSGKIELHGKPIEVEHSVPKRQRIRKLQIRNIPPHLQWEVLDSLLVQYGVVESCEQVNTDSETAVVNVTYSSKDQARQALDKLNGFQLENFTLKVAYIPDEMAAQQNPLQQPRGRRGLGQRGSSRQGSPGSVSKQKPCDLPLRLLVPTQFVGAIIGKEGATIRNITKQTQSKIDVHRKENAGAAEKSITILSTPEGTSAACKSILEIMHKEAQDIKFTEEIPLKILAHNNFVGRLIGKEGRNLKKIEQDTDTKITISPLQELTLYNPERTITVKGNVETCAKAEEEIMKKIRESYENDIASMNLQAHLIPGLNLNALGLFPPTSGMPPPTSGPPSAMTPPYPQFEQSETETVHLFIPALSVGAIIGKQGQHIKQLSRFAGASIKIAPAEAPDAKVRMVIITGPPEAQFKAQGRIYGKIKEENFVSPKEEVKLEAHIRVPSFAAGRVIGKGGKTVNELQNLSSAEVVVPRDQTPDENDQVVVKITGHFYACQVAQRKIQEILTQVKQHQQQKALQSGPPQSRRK
Method: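 SELEX-seq with GST-tagged full-length IMP3 and an N40 RNA pool, round 4. Each 6-mer is scored as an enrichment z-score of sequence tags containing it, normalised to the matching GST SELEX round. RNA written as DNA (T = U).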

IMP3 KH1-2 = conditions: construct: KH1-2 (164-376); SELEX round: R4
IMP3 KH1-2, sequence (chain, as listed by the source): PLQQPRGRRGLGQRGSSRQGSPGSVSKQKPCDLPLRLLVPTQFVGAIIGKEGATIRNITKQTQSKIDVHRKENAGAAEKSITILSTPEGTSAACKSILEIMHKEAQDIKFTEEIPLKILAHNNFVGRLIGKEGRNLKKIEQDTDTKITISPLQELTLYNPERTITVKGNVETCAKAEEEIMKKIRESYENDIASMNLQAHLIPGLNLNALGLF
Method: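 SELEX-seq with GST-tagged IMP3 KH1-2 (Pro164-Phe376) and an N40 RNA pool, round 4 (stringent 300/600 mM KCl washes). 6-mer z-score of sequence-tag enrichment normalised to the corresponding GST SELEX round; RNA k-mers written as DNA (T for U).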

IMP3 KH3-4 = conditions: construct: KH3-4 (377-579); SELEX round: R4
IMP3 KH3-4, sequence (chain, as listed by the source): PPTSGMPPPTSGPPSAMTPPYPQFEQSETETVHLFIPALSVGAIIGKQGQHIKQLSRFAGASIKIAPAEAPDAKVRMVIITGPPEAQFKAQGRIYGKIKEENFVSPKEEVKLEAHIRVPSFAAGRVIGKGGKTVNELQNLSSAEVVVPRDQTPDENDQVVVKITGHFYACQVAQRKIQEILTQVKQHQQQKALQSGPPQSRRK
Method: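 SELEX-seq with GST-tagged IMP3 KH3-4 (Pro377-Lys579) and an N40 RNA pool, round 4. 6-mer z-score of sequence-tag enrichment normalised to the corresponding GST SELEX round; RNA k-mers written as DNA (T for U).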

IMP3 KH1-4, sequence (chain, as listed by the source): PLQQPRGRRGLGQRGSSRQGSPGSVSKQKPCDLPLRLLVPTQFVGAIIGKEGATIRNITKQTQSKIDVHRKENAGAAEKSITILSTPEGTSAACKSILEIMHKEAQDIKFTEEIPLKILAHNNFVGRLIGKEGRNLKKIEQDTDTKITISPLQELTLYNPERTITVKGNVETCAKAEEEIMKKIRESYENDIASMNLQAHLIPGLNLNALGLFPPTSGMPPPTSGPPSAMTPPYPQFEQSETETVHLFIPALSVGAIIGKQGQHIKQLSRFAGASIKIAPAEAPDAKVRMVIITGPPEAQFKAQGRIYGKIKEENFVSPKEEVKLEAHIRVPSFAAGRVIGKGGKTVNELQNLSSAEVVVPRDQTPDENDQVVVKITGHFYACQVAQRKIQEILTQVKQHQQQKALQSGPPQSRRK

| Sequence | 6-mer SELEX enrichment z-score (IMP3 KH1-4) | 6-mer SELEX enrichment z-score (IMP3 RRM1-2) | 6-mer SELEX enrichment z-score (IMP3 full-length) | 6-mer SELEX enrichment z-score (IMP3 KH1-2) | 6-mer SELEX enrichment z-score (IMP3 KH3-4) |
| --- | --- | --- | --- | --- | --- |
| TGCGAA | -0.799 | -0.509 | -0.789 | -0.815 | -0.713 |
| AGCCGA | -1.55 | -1.09 | -0.746 | -1.42 | -1.44 |
| ACGGGA | 0.186 | -0.802 | 0.059 | 0.155 | 0.141 |
| CATCGT | 0.154 | 0.523 | 0.728 | -0.149 | -0.145 |
| CATGGC | 0.93 | 1.11 | 1.45 | 0.766 | 0.696 |
| AATGTC | -0.062 | -0.336 | -0.232 | -0.308 | -0.108 |
| CTAATT | 0.712 | -0.048 | -0.095 | 0.725 | 0.964 |
| TGCCTT | -0.262 | 0.122 | -0.346 | -0.195 | -0.199 |
| CATGTG | 0.58 | 0.455 | 0.493 | 0.268 | 0.342 |
| AGACCA | -0.722 | -0.267 | -0.989 | -0.572 | -0.851 |
| ATAGTA | 0.516 | -0.056 | 0.114 | 0.323 | 0.766 |
| GCATTT | 0.149 | 0.715 | 0.483 | 0.089 | 0.194 |
| ACTACT | 0.458 | 0.259 | -0.368 | 0.605 | 0.398 |
| ATCCCA | -0.962 | -0.502 | -0.938 | -1.03 | -1.58 |
| GATGTG | 0.775 | -0.32 | -0.191 | 0.446 | 0.638 |
| TTGGGA | -0.163 | 0.132 | 0.002 | -0.013 | 0.064 |
| GGGAGA | 1.1 | -0.644 | 0.173 | 1.14 | 1.11 |
| TCAATG | 0.27 | 0.377 | 0.427 | 0.048 | 0.243 |
| CCTAGC | -1.13 | -0.318 | -0.788 | -1.06 | -1.18 |
| AACTAA | 0.692 | -0.909 | -1.09 | 0.679 | 1.53 |
| ACCGAC | -1.88 | -1.26 | -1.48 | -1.52 | -2.18 |
| TAGCGT | -1.96 | 0.207 | -1.16 | -1.74 | -1.54 |
| GGTCGA | -0.174 | 0.027 | 0.242 | -0.122 | 0.011 |
| CACGAC | -0.587 | 1.27 | -0.018 | -0.609 | -1.27 |
| CTAGTC | 0.036 | 0.255 | -0.005 | -0.093 | -0.14 |
| TTGAAA | -0.074 | -1.14 | -0.987 | -0.209 | 0.549 |
| ACCGCA | 0.484 | -0.046 | 0.459 | 0.804 | -0.346 |
| TGTGGC | 0.642 | 0.242 | 0.415 | 0.482 | 0.6 |

| Sequence | 6-mer SELEX enrichment z-score (IMP3 KH1-4) | 6-mer SELEX enrichment z-score (IMP3 RRM1-2) | 6-mer SELEX enrichment z-score (IMP3 full-length) | 6-mer SELEX enrichment z-score (IMP3 KH1-2) | 6-mer SELEX enrichment z-score (IMP3 KH3-4) |
| --- | --- | --- | --- | --- | --- |
| GTATAG | 0.312 | -0.006 | -0.014 | 0.211 | 0.516 |
| GCTAAT | 0.308 | -0.011 | -0.011 | 0.318 | 0.547 |
| GCTCTA | -0.065 | 0.15 | -0.018 | -0.021 | 0.049 |
| TCAGAA | 0.188 | 0.349 | 0.474 | 0.11 | 0.263 |
| GTCCGG | 0.052 | -0.064 | 0.739 | 0.102 | 0.044 |
| AGTCGG | 1.73 | 0.433 | 2.1 | 1.49 | 1.35 |
| CGTCCA | -0.338 | 0.084 | 0.428 | -0.307 | -0.68 |
| GCAAAA | -0.611 | -1.2 | -0.746 | -0.556 | -0.184 |
| TGACTC | -0.575 | -0.238 | -0.566 | -0.511 | -0.609 |
| GATTTG | 0.529 | -0.101 | -0.139 | 0.304 | 0.72 |
| AATCTC | -0.262 | 0.167 | -0.268 | -0.275 | -0.508 |
| TCCGTA | -0.218 | -0.126 | -0.115 | -0.071 | -0.325 |
| AGATCC | -0.464 | -0.455 | -0.696 | -0.46 | -0.657 |
| GAAAGC | -1.47 | -1.18 | -1.29 | -1.39 | -1.23 |
| GGCCTC | -0.319 | 0.231 | 0.487 | -0.249 | -0.381 |
| TCTACC | -0.603 | -0.183 | -0.654 | -0.626 | -0.843 |
| CGTCGG | 0.538 | 0.476 | 1.52 | 0.517 | 0.45 |
| ACTCGG | -0.833 | 0.056 | 0.076 | -0.778 | -0.758 |
| ACGCGG | 0.087 | -0.185 | 0.64 | 0.045 | 0.101 |
| GGATAT | 0.742 | -0.01 | 0.117 | 0.605 | 1.05 |
| TAACTA | 0.986 | -0.355 | -0.381 | 0.968 | 1.44 |
| TGTATC | -0.269 | 0.207 | -0.116 | -0.21 | -0.174 |
| TCGTTT | 0.028 | 0.455 | 0.094 | 0.034 | 0.212 |
| TTATAG | 0.743 | 0.135 | 0.167 | 0.642 | 1.2 |
| ATGCAG | 1.35 | 0.135 | 0.819 | 1.02 | 0.978 |
| CCCCAT | 0.404 | -0.218 | -0.007 | 0.516 | -0.393 |
| CGTAAC | -1.53 | -0.515 | -1.01 | -1.44 | -1.51 |
